# Among all 150,000 compounds or so, about 540 (0.36%) showed an effect of 50% or more. The list shows a part of the results.
# System: Plasmodium falciparum
# Assay: Primary screen in NF54 nanoGlo assay, in single point, at 2uM, 72h; a lower Z score goes with more inhibition
# Assay type: functional, Erythrocyte
# Conditions: timepoint 72 hour
Compound,% Inhibition [%],Z score
Cc1ccc(F)c(NC(=O)c2cc(-c3cccc4ccccc34)[nH]n2)c1,15,-2.22
COc1cc(=O)n2c(c1C(=O)N1CCN(c3ccc(Cl)cc3)CC1)CCCCC2,-10,1.1
COc1ccc(CN2CC[C@@H](N3CCC(C)CC3)CCC2=O)cc1,1,-0.13
CCN(Cc1nc(C)n[nH]1)Cc1c(F)cccc1Cl,-17,1.51
Cc1ccc(-c2nc3ccc(Cl)cn3c2Nc2ccc3c(c2)OCO3)o1,-9,1.55
CC(C)c1nnc(-c2cccnc2N2CCN(C(=O)c3ccc4ccccc4n3)CC2)o1,-16,1.53
COc1ccc2c(c1)CCc1c(C(=O)NCCc3c[nH]cn3)n[nH]c1-2,-4,0.34
COc1ccc(C(=O)Nc2nc3ccccc3n2CCN2CCCC2)cc1,-4,0.61
c1ccc(-c2nc(CCNCc3cccc4cn[nH]c34)no2)nc1,-4,0.67
Cc1nc(-c2cc(S(=O)(=O)NCc3ccc(C)c(C)c3)c(C)s2)cs1,6,-0.72
C=C(C)COc1ccc2oc(-c3ccc(OC)cc3)c(C(=O)Nc3ccc4c(c3)OCO4)c2c1,-12,2.33
CS(=O)(=O)N[C@H]1CCCN(c2ncns2)C1,-9,1.05
O=C(Nc1cc(-c2ccccc2)ns1)[C@@H]1CCCN1C(=O)c1cccs1,0,0.06
CCC(C)C(=O)Nc1cccc2c1CC(C)N(C(=O)C(C)CC)C2 (centres undefined),-7,1.24
O=C(Nc1ccccc1C(=O)NCc1ccccn1)c1ncc[nH]1,4,-0.54
CCn1nccc1C(=O)N1CCC2(CC[C@@H]2OC)CC1,-2,0.21
c1cc2c(cc1-c1cnc3n1C[C@H](CNC1CCCC1)OC3)OCO2,-5,0.59
O=C(Cc1cscn1)N(C[C@H]1CCCO1)c1ccc(Br)cc1,-6,0.95
CCCc1ccc(CN2CCn3nc(CN4[C@@H]5CC[C@H]4C[C@@H](O)C5)cc3C2)o1,-12,1.14
COc1ccc(OC)c(CNC2CCCC23CCCO3)c1 (centres undefined),-2,0.49
CCOC[C@@H](O)CN(Cc1c(C)nn(-c2ccccc2)c1Oc1ccc(F)cc1F)CC1CC1,-1,0.13
COc1ccc(-c2cc(NC(=O)c3ccc(C)c(NC(=O)c4ccco4)c3)ccc2OC)cc1,4,-0.66
COc1ccc(-c2ccc([C@H]3C[C@H](N)C3)cc2)c(CO)c1,-2,0.28
CC(NC(=O)Nc1cccnc1-n1cccn1)C1CCCO1 (centres undefined),-12,1.51
Cc1cc2c(-c3cccc4ccnn34)ncnc2s1,1,-0.16
O=C(Nc1ccc(N2CCN(c3ccccc3F)CC2)c(S(=O)(=O)N[C@H]2CCCc3ccccc32)c1)C1CCCCC1,-5,0.87

Compound,% Inhibition [%],Z score
Cc1cccc(C(=O)Nc2nccn(-c3ccc4c(c3)CCC4)c2=O)c1,8,-1.07
Cc1cc2nc(C)c(CCC(=O)NC[C@H]3CN(Cc4ccccc4)CCO3)c(C)n2n1,-12,1.8
Cc1ccc(S(=O)(=O)Nc2cc(C(=O)N3CCC[C@H](C)C3)ccc2N2CCNCC2)cc1C,-6,0.56
COc1ccc([C@H]2c3ccc(O)cc3Oc3ncn4nc(-c5ccc(Cl)cc5)nc4c32)cc1,-7,1.1
CCC(CO)(CO)NC(=O)c1oc(Br)cc1C,-17,2.27
Cc1noc(C)c1CN(C(=O)[C@H](C)Oc1ccc(F)cc1)c1ccccc1,-4,0.42
O=C1CCn2ncc(-c3ccccc3)c2N1,1,-0.1
COc1ccc(OC)c(-n2c(-c3ccccc3)cc(C(=O)N3CCN(Cc4ccccc4)CC3)c2C)c1,-8,1.09
COc1cc2c(cc1-c1nccn1Cc1noc(C(N)=O)n1)OCCCO2,-11,1.12
CC(C)(Cc1ccc(O)cc1)C(=O)N1CCO[C@@]2(CCCOC2)C1,-15,2.2
Cc1cc(C(=O)NCc2ccc(OC[C@H]3CCCO3)cc2)[nH]n1,-7,0.9
C[C@H]1CN(C(=O)c2cccc(Oc3cccc(C(F)(F)F)c3)c2)CCN1S(C)(=O)=O,0,0.03
O=C(Nc1ccccc1Cl)N1CCC(N2CCc3sccc3C2)CC1,43,-3.99
CCc1noc(C)c1C(=O)NC1(C)CCOC1C1CC1 (centres undefined),-9,1.46
Cc1cc(C(=O)N2Cc3ccccc3C[C@@H]2C)nc2nc(O)[nH]c(=O)c12,-9,1.64
C[C@@H](CC1CCCCC1)C(=O)NCCc1nccn1C(F)F,27,-3.4
Cc1nc(CNC(=O)N[C@H]2CCCN(c3ccccc3F)C2)oc1C,-3,0.48
Cc1c(-c2cccc(C(=O)NCCCC(=O)N(C)C)c2)cnn1C,-18,1.66
Cc1ccc(NC(=O)NC2(C)CCC2)cc1O[C@H]1CCOC1,-3,0.37
CCOC(=O)N1CC[C@H](NCc2csc(N)n2)C1,-7,0.81
CCO[C@H]1COC[C@@H]1Nc1nc(N)c2cnn(C)c2n1,-9,1.8
CC(C)CNC(=O)COc1ccc2c(c1)[C@H](c1ccccc1)N(Cc1ccccc1)CC2,-5,0.76
Cc1ccc(C(=O)NCc2cn3c(n2)C(=O)N(Cc2ccccc2)CC3)cn1,-13,1.77
COc1cc(N2CC[C@H]3[C@H](CCC(=O)N3CCCO)C2)ncn1,-7,1.39
CCN(Cc1nnc(C2CCC2)n1C)C(C)(C)CO,-2,0.39
CCNC(=O)CCC[C@@H]1[C@H]2CCCN3CCC[C@@H](CN1C(=O)c1ccccc1)[C@@H]23,2,-0.32

# Source: ChEMBL document CHEMBL4888484, “Replenishing the malaria drug discovery pipeline: Screening and hit evaluation of the MMV Hit Generation Library 1 (HGL1) against asexual blood stage Plasmodium falciparum ,using a nano luciferase reporter read-out” (2022)
